# Measurements reported in PubChem BioAssay AID651812 (National Center for Advancing Translational Sciences (NCATS), 2012).
# Among all 2,100 compounds or so, about 650 (31%) were called active. Inconclusive means that the source gave no clear call. Such entries were picked first, then a sample of the others. Calls follow the shape of the dose curve; as a rule, active = well fitted inhibition curve with a large enough effect; inconclusive = small, poorly fitted or top-dose-only effect; inactive = flat fitted curve, though single readings scatter. Potencies of inconclusive entries are left out as doubtful fits.
# Assay: qHTS for inhibitors of Vif-A3G interactions: Cherry picks; also: nearly all actives have a fitted effect of over 80% in size
# Details: HeLa A3G-eYFP + Vif (tagged APOBEC3G with the HIV-1 protein that degrades it), 24 h; Potency: eYFP fluorescence increase unless noted; series mostly up to 36.9 µM
# Source text: The recent discovery and characterization of host restriction factors, which provide a potent defense to invading retroviruses, has provided new targets for antiviral drug development. APOBEC3G (A3G) and APOBEC3F (A3F) are potent cytidine deaminases that block HIV-1 replication; HIV-1 expresses the Vif protein, which counteracts A3G and A3F by binding to them and inducing their proteasomal degradation. The Vif-A3G and Vif-A3F interactions provide two potential targets for development of small molecules which can interfere with the ability of Vif to degrade A3G or A3F. […] To identify inhibitors that can interfere with Vif mediated degradation of A3G and A3F, we have developed Hela cell lines that stably express A3G or A3F tagged with eYFP at the C-terminal end (A3G-eYFP or A3F-eYFP, respectively) and Vif. In the absence of an inhibitor, Vif induces degradation of A3G-eYFP and A3F-eYFP, and the cells are not fluorescent. In the presence of an inhibitor, it is expected that Vif will be unable to degrade A3G-eYFP and/or A3F-eYFP, resulting in an increase in yellow fluorescence. In this assay, Vif A3G was screened against the cherry picks ordered from the MLSMR. NIH Chemical Genomics Center [NCGC] NIH Molecular Libraries Probe Centers Network [MLPCN] MLPCN Grant: MH093245 Assay Submitter (PI): Vinay Pathak, National Cancer Institute
# A3G-Vif cells were harvested from T225 flask and resuspended in phenol free OPTI-MEM medium with 5% FBS. Then 5 uL of 140,000 cells/mL resuspended cells was dispensed into each well of low base Aurora COC 1,536-well plates (black walled, clear bottom) using a Multidrop Combi dispenser. After overnight culture at 37 deg C with 5% CO2, a total of 23 nL of compounds at 5 selected concentrations from the NPC or positive control (2 mM stock of MG132) in DMSO was transferred to each well of the assay plate using a pintool (Kalypsys, San Diego, CA), and the plates were further incubated at 37 deg C with 5% CO2 for 24 hours. After that, the plates were measured on Acumen Explorer (TTP Lab Tech). The fluorescence was detected by 488 nm/Ex and […].
# Potency is read from the fitted curve at half-maximal effect; tags tell the direction and shape of the fitted curve.
row,SMILES,Potency
1,Cc1cc(C(=O)N/N=C/c2ccc3c(c2)OCO3)c2ccccc2n1,inactive
2,Cc1c(C(=O)OC2CCCCC2)[nH]c2c1C(=O)CC(c1ccccc1Cl)C2 (stereo not drawn),inactive
3,COc1ccc(N2CC(C(=O)N/N=C/c3ccc(C)cc3)CC2=O)cc1 (stereo not drawn),inactive
4,C=CCc1c(C)nc(-c2ccccc2)nc1Nc1ccccc1O,"inconclusive [inhibitor, single point]"
5,Cc1sc(NC(=O)c2sc3nc4c(C)cccc4cc3c2N)c(C#N)c1C,"inconclusive [inhibitor, single point]"
6,COc1ccc(-c2nc3c4ccccc4ccn3c2Cc2ccsc2)cc1OC,inactive
7,CCN1C/C(=C\c2cccc([N+](=O)[O-])c2)C(=O)/C(=C/c2cccc([N+](=O)[O-])c2)C1,"inconclusive [inhibitor, single point]"
8,CN(C)c1ccc(/C=C/c2cc(N(C)C)nc3ccccc23)cc1,active: 13 µM
9,CCOCCC(=O)Nc1ccc2c(c1)c(=O)n(C)n2C/C=C/c1ccccc1,inactive
10,Cc1ccc2nc(/C(C#N)=C/c3ccc(O)c(O)c3)[nH]c2c1,"inconclusive [inhibitor, partial curve]"
11,CC(C)N1CCc2c(sc(NC(=O)c3ccc(S(=O)(=O)N4CCOCC4)cc3)c2C#N)C1,active: 20.6 µM
12,Cc1ccc(C)c(Nc2nn3c(=O)c4ccc(C(=O)NCc5cccs5)cc4nc3s2)c1,"inconclusive [inhibitor, single point]"
13,Cn1cccc1/C=C1\SC(=Nc2ccc(O)cc2)NC1=O,"inconclusive [inhibitor, single point]"
14,N#CC1=C(N)Oc2cc(N)ccc2C1c1cccc(Br)c1 (stereo not drawn),inactive
15,C=C(/C=C/c1ccc(N(C)C)cc1)c1nc2ccccc2s1,active: 18.4 µM
16,CCCCCCn1c(=O)[nH]c2nc3cc(N)ccc3nc2c1=O,"inconclusive [inhibitor, single point]"
17,COC(=O)c1sc(-c2cccs2)cc1NC(=O)/C=C/C(=O)O,inactive
18,CC(C)NC(=S)N/N=C1\CCCCc2ccccc21,inactive
19,O=C(NCc1ccccc1Cl)c1cccc2c1C(=O)c1ccc(-c3ccc(OC(F)(F)F)cc3)cc1S2(=O)=O,"inconclusive [inhibitor, single point]"
20,O=C1c2cccc3c([N+](=O)[O-])ccc(c23)C(=O)N1c1ccccn1,active: 5.8 µM
21,CCOC(=O)CCSc1nc(C)cc(C(F)(F)F)c1C#N,"inconclusive [inhibitor, single point]"
22,CCc1cccc2c(C(O)c3c[nH]c4ccccc34)c[nH]c12 (stereo not drawn),active: 20.6 µM
23,COc1cnc(-c2ccccn2)nc1Oc1ccc(F)cc1F,inactive
24,Cc1cn2c(N)c(C=C3C=C(Cl)C(=O)C(Cl)=C3)c(=O)nc2s1,"inconclusive [inhibitor, single point]"

row,SMILES,Potency
1,CCOC(=O)C1=C(CSc2nc(-c3ccccc3)ccc2C#N)OC(N)=C(C#N)C1c1cccnc1 (stereo not drawn),"inconclusive [inhibitor, single point]"
2,CCn1c2ccccc2c2cc(NC(=O)c3ccc(=O)oc3)ccc21,"inconclusive [inhibitor, single point]"
3,COc1cc(/C=C(\C#N)c2nc3ccccc3[nH]2)ccc1O,active: 5.8 µM
4,CC(C)n1cc(NC(=O)c2cc(-c3ccccc3)on2)cn1,inactive
5,Cn1ccnc1Sc1nc2ccccc2nc1NS(=O)(=O)c1ccccc1,inactive
6,O=C(NCc1cc(C(F)(F)F)ccc1Cl)c1cccc2c1C(=O)c1ccc(N3CCOCC3)cc1S2(=O)=O,"inconclusive [inhibitor, single point]"
7,COc1ccccc1NC(=O)c1sc2ncn(CC(=O)Nc3ccccc3)c(=O)c2c1C,"inconclusive [inhibitor, single point]"
8,COc1ccccc1N1C(=O)S/C(=C\c2ccc(C)s2)C1=O,"inconclusive [inhibitor, single point]"
9,O=c1c2ccccc2c(C=Nc2cccc(O)c2)c(O)n1-c1ccc2c(c1)OCO2,"inconclusive [inhibitor, single point]"
10,N#Cc1c(-c2ccc(F)cc2)c(-c2ccc(F)cc2)nn(CCO)c1=O,active: 12.5 µM
11,COC(=O)c1ccc(Oc2cc(C)nc(SC)n2)cc1,inactive
12,Cc1ccc2nc(NS(=O)(=O)c3ccc(Cl)cc3)c(Nc3ccc(C(=O)O)cc3)nc2c1,inactive
13,COc1ccc(-c2c(C#N)c(N)nc(Sc3ccc(Cl)cc3)c2C#N)cc1,"inconclusive [inhibitor, partial curve, poor fit]"
14,Cc1ccc2c(c1)Sc1c(ccc3ccccc13)N2,"inconclusive [inhibitor, single point]"
15,COC1=C(Br)C(=O)c2ncccc2C1=O,"inconclusive [inhibitor, single point]"
16,CCCN(CCC)c1ccc(/C=C/c2ccnc3ccccc23)cc1,active: 20.6 µM
17,NC(=O)c1cccc(-c2ccnc3c2CC(C(=O)NCc2ccco2)O3)c1 (stereo not drawn),inactive
18,Cc1cc(C)c(NC(=O)Cn2c(=O)n(Cc3ccc(C(=O)NCc4ccco4)cc3)c(=O)c3sccc32)c(C)c1,"inconclusive [inhibitor, single point]"
19,COc1cc(/C=C2/SC(=S)N(Cc3ccccc3)C2=O)cc(Cl)c1O,"inconclusive [inhibitor, full curve]"
20,Oc1ccc(-c2nc(-c3ccc(O)c(O)c3)cs2)cc1,inactive
21,COc1ccccc1-c1noc(-c2ccc(NCc3ccco3)c([N+](=O)[O-])c2)n1,active: 23.1 µM
22,Fc1ccc(COc2ccc3ccccc3c2CNc2nn[nH]n2)cc1,inactive
23,Cc1sc2nc(CSc3nnnn3-c3ccc(Cl)cc3)[nH]c(=O)c2c1C,"inconclusive [inhibitor, single point]"
24,Cc1cc(N=Cc2c(O)n(-c3ccc4c(c3)OCO4)c(=O)c3ccccc23)ccn1,"inconclusive [inhibitor, single point]"
